{
  "source": "patent US11479601B2",
  "about": "“Antibodies specific to Sonic Hedgehog and method of use thereof” (The Regents of the University of California, priority 2016, dated 2022)",
  "key": {"[1]": {"test_system": "A549 cell subcutaneous xenograft tumor", "assay": "A549 subcutaneous xenograft, intra-tumor injection of C-terminal Shh antibody", "assay_type": "in vivo, mice", "method": "For xenograft formation, female nude mice, 5 to 10 weeks old, were injected subcutaneously (SC) with 10 million A549 cells in the dorsal area in a volume of […]. For SC inoculation of sorted cells, 1,500 cells of A549 Shh+ or Shh− cells were injected in a volume of […]. For intra-veinous injection of sorted cells, 1,000 cells of A549 Shh+ or Shh− cells were injected in the tail vein. For the in vivo treatment assay, after xenograft formation, animals were injected intravenously with cisplatin (10 mg/kg weekly), docetaxel (10 mg/kg twice a week) or vehicle, and intraperitoneally with GDC0449 (20 mg/kg daily) or vehicle. Each group consisted in 4-5 mice. Tumor size was determined twice a week, and tumor volumes were calculated using width (x) and length (y) (x^2y/2, where x<y). Tumors were collected after mice euthanasia, and cell dissociation was performed as for fresh human samples (cf supra). Flow cytometry and FACS were done as described supra. All animals were cared in accord with University of California San Francisco (UCSF) guidelines.\nThe in vivo effect of the C-terminal Shh antibodies were tested using the A549 cell subcutaneous xenograft tumor model in mice, as described in Example 1. After xenograft formation, animals were intra-tumor injected with a C terminal Shh antibody (2G4 or 2D9; each at 158 μg), or a control solution, 3 times a week for about 3 weeks (at 2-3 day intervals). Tumor volume was determined, as described in Example 1, every 2 days. Weight and size of the excised tumor were determined after the antibody treatment. A portion of the excised tumor was sectioned for immunohistochemical analysis of Shh protein expression, and RNA was extracted from another portion of the excised tumor for analysis of Gli1 expression."}, "[2]": {"test_system": "Shh 247-264 AA and Shh 448-462 AA peptides", "assay": "Biolayer interferometry (Octet RED 384) with Shh peptide-mimic ligands", "assay_type": "binding, human", "conditions": "37-3000 nM peptides; versus IgG control antibody", "method": "Antibody immobilization was checked via Octet® Software (ForteBio) prior to introduction of increasing concentrations (37, 111, 333, 1000, 3000 nM) of Sonic Hedgehog peptide-mimic ligands (Shh 247-264 AA and Shh 448-462 AA). Graphical output from the Octet® Software of representative data from two independent experiments is presented."}, "Shh in A549 cells": {"target": "T1, Shh in A549 cells (Homo sapiens, UniProt Q15465)", "T1 construct": "1) 293T (endogenous Shh), 2) 293T (bearing exogenously transfected Shh) and 3) A549 (Shh-expressing); endogenous in cells; host or cells: 293T and A549 (endogenous); also 293T and A549 transiently transfected with pCMV-Shh (Origene)", "assay": "Flow cytometry of purified antibodies on A549 cells (vector control or pCMV-Shh)", "assay_type": "binding", "method": "A549, 293T or 293T (+pCMV Shh) cells were labeled with Sonic Hedgehog (Shh) antibody (Abcam 53281, 1:100) or therapeutic test antibodies (1:100) for 1 hour at RT post serum blocking. Following two PBS washes, a FITC-conjugated secondary antibody (Abcam 97029, 1:100) or an Alexa-Fluor 647 (Invitrogen, 1:1000) was used to label cells. Samples were screened by flow cytometry using an Accuri™ C6 machine (BD Biosciences). For fluorescence activated cell sorting, samples were sorted using an S3e™ Cell Sorter (Bio-Rad) and the Shh+ population was collected. For all experiments, cells processed without primary antibody served as a negative control. Experiments were performed in duplicates or triplicates.\nFor the purpose of selecting the best C-term Shh antibodies from over 50 hybridoma clones, two sets of screening assays were designed. First, the same Shh C-term peptides (AA 247-264 and 448-462, KLH-free version) used to mount an immune response in mice was employed in an ELISA-based assay with supernatants from antibody-producing hybridoma clonal cells. […] To confirm specific recognition, A549 (+vector control) cells and A549 cells transfected with exogenous Shh were labeled with 2G4 and 2D9 and assessed via flow cytometry. […] Finally, the Kd values of both antibodies with recombinant full-length Shh were calculated and nanomolar binding affinities were observed (FIG. 48C)."}},
  "note": "Where “and” joins values, the source holds several entries; their conditions need not be identical. Equal values may be shown once.",
  "data": [
    {"molecule": "2D9: purified mouse monoclonal C-terminal Shh antibody from hybridoma sub-clone 2D9 of clone 1C11, IgG1 kappa (antibody) heavy: EVKLVESGGGLVKPGGSLKLSCAASGFTFSSYTMSWVRQTPAKRLEWVATISSGGGNTYYPDSVKGRFTISRDNARNTLYLQMSSLRSEDTAMYYCARDYRSLFAYWGQGTLVTVSAAKTTPPSVYPLAPGSAAQTNSMVTLGCLVKGYFPEPVTVTWNSGSLSSGVHTFPAVLQSDLYTLSSSVTVPSSTWPSETVTCNVAHPASSTKVDKKIVPRDCGCKPCICTVPEVSSVFIFPPKPKDVLTITLTPKVTCVVVDISKDDPEVQFSWFVDDVEVHTAQTQPREEQFNSTFRSVSELPIMHQDWLNGKEFKCRVNSAAFPAPIEKTISKTKGRPKAPQVYTIPPPKEQMAKDKVSLTCMITDFFPEDITVEWQWNGQPAENYKNTQPIMDTDGSYFIYSKLNVQKSNWEAGNTFTCSVLHEGLHNHHTEKSLSHSPGK light: QIVLTQSPAIMSASPGEKVTITCSASSSVSYMHWFQQKPGTSPKLWIYSTSNLASGVPARFSGSGSGTSYSLTISRMEAEDAATYYCQQRSSYPFTFGSGTKLEIKRADAAPTVSIFPPSSEQLTSGGASVVCFLNNFYPKDINVKWKIDGSERQNGVLNSWTDQDSKDSTYSMSSTLTLTKDEYERHNSYTCEATHKTSTSPIVKSFNRNEC", "values": [
      {"measurement": "Average % change in tumor volume, relative to day −2", "setting": "[1]; Day 0", "result": 111.10, "unit": "%"},
      {"measurement": "Average change in tumor volume", "setting": "[1]; Day 0, 158 μg intra-tumor 3 times a week", "result": 14.18, "unit": "mm^3"},
      {"measurement": "Average % change in tumor volume, relative to day −2", "setting": "[1]; Day 2", "result": 113.30, "unit": "%"},
      {"measurement": "Average change in tumor volume", "setting": "[1]; Day 2", "result": 28.14, "unit": "mm^3"},
      {"measurement": "Average % change in tumor volume, relative to day −2", "setting": "[1]; Day 5", "result": 131, "unit": "%"},
      {"measurement": "Average change in tumor volume", "setting": "[1]; Day 5", "result": 104.6, "unit": "mm^3"},
      {"measurement": "Average % change in tumor volume, relative to day −2", "setting": "[1]; Day 7", "result": 141.70, "unit": "%"},
      {"measurement": "Average change in tumor volume", "setting": "[1]; Day 7", "result": 150.4, "unit": "mm^3"},
      {"measurement": "Average % change in tumor volume, relative to day −2", "setting": "[1]; Day 12", "result": 157.70, "unit": "%"},
      {"measurement": "Average change in tumor volume", "setting": "[1]; Day 12", "result": 187.6, "unit": "mm^3"},
      {"measurement": "Average % change in tumor volume, relative to day −2", "setting": "[1]; Day 14", "result": 163.90, "unit": "%"},
      {"measurement": "Average change in tumor volume", "setting": "[1]; Day 14", "result": 220.5, "unit": "mm^3"},
      {"measurement": "Average % change in tumor volume, relative to day −2", "setting": "[1]; Day 16", "result": 162, "unit": "%"},
      {"measurement": "Average change in tumor volume", "setting": "[1]; Day 16", "result": 207.9, "unit": "mm^3"},
      {"measurement": "Average % change in tumor volume, relative to day −2", "setting": "[1]; Day 19", "result": 206.90, "unit": "%"},
      {"measurement": "Average change in tumor volume", "setting": "[1]; Day 19", "result": 331.3, "unit": "mm^3"},
      {"measurement": "Average % change in tumor volume, relative to day −2", "setting": "[1]; Day 21", "result": 193.60, "unit": "%"},
      {"measurement": "Average change in tumor volume", "setting": "[1]; Day 21", "result": 309.6, "unit": "mm^3"},
      {"measurement": "Average % change in tumor volume, relative to day −2", "setting": "[1]; Day −2", "result": 100, "unit": "%"},
      {"measurement": "Weight of tumor after treatment, AVG", "setting": "[1]; average of 3 animals", "result": 0.1142},
      {"measurement": "Weight of tumor after treatment", "setting": "[1]; individual animals", "result": "0.0512 and 0.1172 and 0.1742"},
      {"measurement": "binding response to Shh peptide-mimic ligands (BLI)", "setting": "[2]", "result": "increases in binding response"},
      {"measurement": "endogenous Shh recognized (flow cytometry)", "setting": "Shh in A549 cells; A549 (+vector control)", "result": 0.4, "unit": "%"},
      {"measurement": "exogenous Shh recognized (flow cytometry)", "setting": "Shh in A549 cells; A549 cells transfected with exogenous Shh", "result": 4.1, "unit": "%"}
    ]}
  ]
}
